Data as given in PubChem BioAssay AID1671188 (National Center for Advancing Translational Sciences (NCATS), 2021).
Out of some 100,000 compounds screened, about 250 (0.25%) were called active. The shares of active, inactive and inconclusive entries below differ from those in the screen. Calls come from the whole dose curve; as a rule, active = well fitted inhibition curve with a large enough effect; inconclusive = small, poorly fitted or top-dose-only effect; inactive = flat fitted curve, though single readings scatter. No potency is given beside an inconclusive call; the fits are too rough.

The molecules below were run against Alanine aminotransferase 2 (Homo sapiens) (UniProt Q8TD30) (assay: Primary qHTS assay for inhibitors of Glutamate pyruvate transaminase 2 (GPT2)). Conditions: Recombinant GPT2, coupled pyruvate oxidase/HRP Amplex Red fluorescence; activity change, negative = inhibition: at 57.7 µM (top of the series) unless noted; series mostly up to 57.7 µM.
Summary of the method: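 Inhibition is scored from Amplex Red fluorescence generated when pyruvate oxidase and HRP act on pyruvate released by GPT2. Reactions contain 10ng/uL enzyme, 250uM a-KG and 2mM L-alanine and run 30 min at room temperature.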
% is set by controls: 0 for no effect and ±100 for the full control effect; potency is the fitted concentration of half-maximal effect; tags give direction and shape of the fitted curve.
Note: nearly all actives have a fitted effect of over 60% in size.

UniProt Q8TD30, sequence (Q8TD30 whole entry, looked up): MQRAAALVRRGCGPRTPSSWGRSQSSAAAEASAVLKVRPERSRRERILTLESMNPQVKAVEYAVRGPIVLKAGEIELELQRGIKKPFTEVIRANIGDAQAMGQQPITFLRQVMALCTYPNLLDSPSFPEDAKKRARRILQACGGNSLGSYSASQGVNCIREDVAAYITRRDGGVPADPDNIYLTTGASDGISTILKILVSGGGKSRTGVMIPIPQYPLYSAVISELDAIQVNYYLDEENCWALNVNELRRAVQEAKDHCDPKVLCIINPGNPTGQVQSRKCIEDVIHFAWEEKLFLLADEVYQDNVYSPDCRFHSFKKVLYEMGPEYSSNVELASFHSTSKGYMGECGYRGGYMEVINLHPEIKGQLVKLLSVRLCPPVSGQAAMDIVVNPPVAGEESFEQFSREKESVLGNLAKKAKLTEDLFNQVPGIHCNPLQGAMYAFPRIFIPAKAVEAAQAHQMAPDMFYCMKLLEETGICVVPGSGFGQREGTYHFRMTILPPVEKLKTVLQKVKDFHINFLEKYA

Structure (SMILES)	Potency	activity change, negative = inhibition	outcome
COc1ccc(-c2cc(N3CCC(NC(=O)c4ccncc4)C3)n[nH]2)cc1 (stereo unspecified)	inconclusive [inhibitor, partial curve]		
O=C(NC1CCN(c2cc(-c3ccc(F)cc3)[nH]n2)C1)c1ccc(F)c(F)c1 (stereo unspecified)	inconclusive [inhibitor, partial curve]		
CC(C)(O)CC(=O)NCCn1ccc2ncnc(Nc3ccc(Oc4cccc(C(F)(F)F)c4)c(Cl)c3)c21	inconclusive [inhibitor, single point]		
CCS(=O)(=O)N1CCCN(Cc2ccncc2)C(c2ccccc2)CC(=O)NCC1 (stereo unspecified)	inconclusive [inhibitor, single point]		
O=C(NC1CCN(c2cc(-c3cccs3)[nH]n2)C1)c1cccc(OC(F)(F)F)c1 (stereo unspecified)		inactive: -23.8%	
Cc1cc(C(=O)N2C[C@@H]3CCCN4CCC[C@@H]([C@H]34)[C@H]2CCCC(=O)N2CCOCC2)nn1C	inconclusive [inhibitor, single point]		
Cn1nc(C(=O)NCC(=O)N2CCCCCCNC(=O)CC2c2ccccc2)c2ccccc21 (stereo unspecified)	inconclusive [inhibitor, single point]		
Cc1cccc(-c2nc3cnccn3c2NCCC(=O)N2CCCCCC2)c1	inconclusive [inhibitor, single point]		
Cc1cccc(C(=O)N2CCCC(c3noc(COc4ccccc4F)n3)C2)c1 (stereo unspecified)			inactive
COc1ccc(C(=O)N[C@@H]2CCC[C@@H]2C(=O)N2CCN(c3ccccn3)CC2)cn1	inconclusive [inhibitor, full curve, poor fit]		
COc1ccccc1CC(=O)N1CCC(n2cc(-c3nc(C)no3)nn2)CC1	inconclusive [inhibitor, partial curve, poor fit]		
O=C(NCCCc1ccccc1)c1n[nH]c2c1CN(C(=O)c1c(F)cccc1F)CC2	inconclusive [inhibitor, single point]		
C[C@H](NC(=O)C[C@@H]1c2nc(NC(=O)c3ccc(F)cc3)sc2C[C@@H]2[C@](C)(CO)[C@H](O)CC[C@]21C)c1ccccc1	inconclusive [inhibitor, single point]		
COc1cccc(CN2CCc3c(cc(C(=O)Nc4ccccc4)n3C)C2)c1	inconclusive [inhibitor, partial curve]		
COC(=O)c1c(NC(=O)c2ccccc2)c2cc(NC3CCOCC3)cnc2n1CC1CCCO1 (stereo unspecified)		inactive: 2.43%	
CC(C)=CCC[C@](C)(O[C@@H]1O[C@H](CO)[C@@H](O)[C@H](O)[C@H]1O)[C@H]1CC[C@]2(C)[C@@H]1[C@H](O)CC1[C@@]3(C)CC[C@H](O)C(C)(C)C3[C@@H](O[C@@H]3O[C@H](CO)[C@@H](O)[C@H](O)[C@H]3O[C@@H]3O[C@@H](C)[C@H](O)[C@@H](O)[C@H]3O)C[C@]12C (stereo partly specified)	inconclusive [inhibitor, single point]		
